Source: the RNAGym collection of RNA variant scans (doi:10.7554/elife.90254)
The source gives no read counts; variants with many changes may rest on few reads.

B1: LINE1-mini (parent)
chain: GGCAGAGCUCAACACAGCGUGGCAAAGUGGCUGUGGCUAGACUGCC

Variants of: B1
Assay: self-cleavage, relative activity (ratio to wild type); higher = more cleavage; in vitro, sequencing; the parent is a self-cleaving ribozyme
G21U G40A G44A showed a self-cleavage of 0.03. Work on U20G U28G G35U yielded a self-cleavage of 0.02. In the case of G21U G30U C45G, the self-cleavage is reported as 0.06. G21A G22A A39C G44U C46U showed a self-cleavage of 0.04. G21U C23U G30C U32A U43G showed a self-cleavage of 0.14. Work on G21U G35U G36C G40U yielded a self-cleavage of 0.1. For G21C C23A U38C, the self-cleavage was 0.17. Work on G21U G30A U34A C45A yielded a self-cleavage of 0.06. G22A A39G C45U gave a self-cleavage of 0.08. G21U C31U C42U gave a self-cleavage of 0.06. G21U G22C C46G gave a self-cleavage of 1.21. G21C U28C A39U showed a self-cleavage of 0.35. With G21C A25G C46A the self-cleavage was 0.61. In the case of G22A A25C G27U, the self-cleavage is reported as 0.12. G21A A24U U28C G30U C31U showed a self-cleavage of 1.14. In the case of G21C A26C U34G, the self-cleavage is reported as 0.14. In the case of G21C A25U U28A, the self-cleavage is reported as 0.42. In the case of G21U A39G C42A, the self-cleavage is reported as 0.01. In the case of G21C G30C G40C, the self-cleavage is reported as 0.1. With G21A U28C G29U the self-cleavage was 1.18. In the case of G21C G22A C23G, the self-cleavage is reported as 0.3. In the case of G21C G22U C23G, the self-cleavage is reported as 0.25. Variant U20G U43A C45A C46U has a self-cleavage of 0. G21U G33A G35C U38G gave a self-cleavage of 0.04. G21U G30U U32A U34A showed a self-cleavage of 0.04. For G21C C23U G36A, the self-cleavage was 0.05. Variant G21U G22C C23A C46A has a self-cleavage of 0.64. G21U U28A G29A C45A gave a self-cleavage of 0.4. With U20G G36A G40A the self-cleavage was 0.33. G21C G36U U38A showed a self-cleavage of 0.01. With G21A G35C U38C G40U the self-cleavage was 0.08. With G21U G36C C37U U43A the self-cleavage was 0.01. U20G U34G U43A gave a self-cleavage of 0.02. G21A C37G C46A gave a self-cleavage of 0.03. With G21C C23A A25U G29U the self-cleavage was 0.79. Work on G21A G33U G36A yielded a self-cleavage of 0.06. Variant G21A G35U G36U has a self-cleavage of 0.23. With G21A G35U G36C the self-cleavage was 0.18. G21C C42A C46U gave a self-cleavage of 0.1. With U20G U38A A39C the self-cleavage was 0.27. For G22A A26U U43A G44A, the self-cleavage was 0.12. Work on G21C U28A C42U yielded a self-cleavage of 0.09. Work on G21C G22U G30U U38C U43C yielded a self-cleavage of 0.06. With G22A A24C C31G U34A A39G the self-cleavage was 0.15. With G21A A25G A26U U34A the self-cleavage was 0.03. G21C G30C A41C showed a self-cleavage of 0.08. With G21C G30U G36C C37G the self-cleavage was 0.03. In the case of G21U A25C U43C, the self-cleavage is reported as 0.15. For G21A G29U U32A, the self-cleavage was 1.43. In the case of G21C A26C U28A U34G, the self-cleavage is reported as 0.64. Variant G22A C23U G36C has a self-cleavage of 0.03. With G21U G27A U28G G40A the self-cleavage was 0.07. G21A A25C C42A showed a self-cleavage of 0.02. In the case of G21A A26G G30A, the self-cleavage is reported as 1.04. G21U A26C G29A showed a self-cleavage of 0.69. For G21U G33C U43A, the self-cleavage was 0.01. Work on G21U A24G A26C yielded a self-cleavage of 1.22. G21U G29U G36C G40A showed a self-cleavage of 0.34. Work on G22A A24C U34A yielded a self-cleavage of 0.43. G21U U28G G40U showed a self-cleavage of 0.08. Variant G21U U28G G40A has a self-cleavage of 0.04. For G22A C31U C42A C46U, the self-cleavage was 0.04. With G21U G33A C37U A41U the self-cleavage was 0.03. G21U U34A C42A gave a self-cleavage of 0.15. In the case of G21C A24U A26G G44U, the self-cleavage is reported as 0.31. Work on G21A G22U G29A yielded a self-cleavage of 1.17. With G21A C31A G33C the self-cleavage was 0.14. In the case of G21U G36C C37U, the self-cleavage is reported as 0.95. For G22A C45A C46U, the self-cleavage was 0.32. G21U G27U C31A gave a self-cleavage of 0.61. In the case of G21U A24U G27A G30U, the self-cleavage is reported as 0.65. G21U G22A G36C showed a self-cleavage of 0.05. In the case of U20G U34C C42U, the self-cleavage is reported as 0.01. In the case of G21U U28G G33A U34A G35C, the self-cleavage is reported as 0.04. U20G G44U C46G showed a self-cleavage of 0.04. For G21U G35A G36C U38G, the self-cleavage was 0.03. G21U G27C A39G U43C showed a self-cleavage of 0.08. G21U G33U G35C gave a self-cleavage of 0.08. G21U C23A G30A gave a self-cleavage of 1.86. For G21C U34C C42A, the self-cleavage was 0.06. For G21U G30C C42G, the self-cleavage was 0.02. G21C G33U C37U gave a self-cleavage of 0.2. U20G U34C G36U C46A gave a self-cleavage of 0.02. Variant G21A G27C C31U has a self-cleavage of 0.05. Variant U20G U34A G40C has a self-cleavage of 0.04. Variant G22A A25C G36C has a self-cleavage of 0.14. Variant G21A G33U U43C has a self-cleavage of 0.03. With U20G U34G A41G the self-cleavage was 0.01. Variant G21C C31A C37A has a self-cleavage of 0.34. G21U U34A A39G showed a self-cleavage of 0.03. With G21A A24U U38A the self-cleavage was 0.52. In the case of G21U C23G G29U, the self-cleavage is reported as 0.12. G21C G22U A41U showed a self-cleavage of 0.5. With G21A G22C G36A the self-cleavage was 0.03. Work on G21A G22U G30A U32G C37A G44A C46U yielded a self-cleavage of 0.01. In the case of G21A A24C A25U G36A G40C, the self-cleavage is reported as 0.61. With G21A C31G A39U the self-cleavage was 0.04. For G22A C23A U43A, the self-cleavage was 0.05. For G22A C23U G35U, the self-cleavage was 1.91. For G21U G35C A41C, the self-cleavage was 0.01. In the case of G21A C23A A24C, the self-cleavage is reported as 0.27. Variant G21A G22A C42A has a self-cleavage of 0.11. Variant G21U U38A A39U A41G has a self-cleavage of 0.65. For G22A C23U G33U, the self-cleavage was 1.16. Variant G22A C23A A25U G36U has a self-cleavage of 0.04. For G21A A39G A41U G44U, the self-cleavage was 0.07. Variant G21U A24G G36A G44A has a self-cleavage of 0.1. Work on G21U C31A U34C yielded a self-cleavage of 0.04. G21U A24G C45U showed a self-cleavage of 0.17. Variant G21C G33U G40A has a self-cleavage of 0.07. Work on G21A C23A G35A yielded a self-cleavage of 0.4. Work on G22A C31U G44C yielded a self-cleavage of 0.04. Variant G21U U34G C37U has a self-cleavage of 0.04. For G21C G36C C45G, the self-cleavage was 0.14. For G21A A25U G33C U43A G44U, the self-cleavage was 0.04. Work on U20G U28A C37A C45U yielded a self-cleavage of 0.01. For G21U G35U U38C, the self-cleavage was 0.06. For G21U G27U G29U, the self-cleavage was 0.54. In the case of G21U U32A G36A, the self-cleavage is reported as 0.21. Variant G21A U28G A41G has a self-cleavage of 0.2. With G21A G35C A41U the self-cleavage was 0.07. For G21A G29A G35U, the self-cleavage was 0.18. For G21C G36U G44A, the self-cleavage was 0.08. G21C A26U G44U showed a self-cleavage of 0.06. G21U C31U U38C G44A gave a self-cleavage of 0.03. G22A A26U G29U G40C showed a self-cleavage of 0.16. For G21U G29U C31U G40A, the self-cleavage was 0.01. Work on G21U G22C G33U yielded a self-cleavage of 0.05. Variant G21U A25U G33U has a self-cleavage of 0.05. With G21A G22U C23U C31U C45G the self-cleavage was 0.05. Variant G21C U32G G35C C37G A39U has a self-cleavage of 0.1. With G21U C23G G40U the self-cleavage was 0.27. G21A U28C A41G gave a self-cleavage of 0.54. Work on G21U A39C C46A yielded a self-cleavage of 0.08. For G21C U28G G30C C42U C45G C46G, the self-cleavage was 0.01. Variant G22A C31U U38A A41G has a self-cleavage of 0.12. G21A A25G G33A U34C showed a self-cleavage of 0.02. G22A G27A G40A gave a self-cleavage of 0.08. Variant G22A C23G G29C G40C has a self-cleavage of 0.06. Work on G21U A26C G33C yielded a self-cleavage of 0.04. G21C C23U U28A gave a self-cleavage of 0.16. Variant U20G U38G U43G has a self-cleavage of 0. G21C A26U C37U showed a self-cleavage of 0.04. G21A C23G A24G gave a self-cleavage of 1. Variant G21A G22C G33A has a self-cleavage of 0.05. In the case of G21A C23A A25U G27C U32A C46A, the self-cleavage is reported as 0.35. G21U A39C G44U showed a self-cleavage of 0. For G21U A25C G36U, the self-cleavage was 0.03. For G21C G30A C37G, the self-cleavage was 0. With G21A G30C C42G U43A C46U the self-cleavage was 0.04. For G21C U38C G40U C45U, the self-cleavage was 0.08. Work on G21C G33A U43A yielded a self-cleavage of 0.07. G21U A41G C42U gave a self-cleavage of 0.13. For G21A G36A G44A, the self-cleavage was 0.11. G21A G36A G44U showed a self-cleavage of 0.07. Variant G21U C37A A39U has a self-cleavage of 0.02. For G21C U32C G36C G40C, the self-cleavage was 0.04. Work on G21A U28A C31U G44U yielded a self-cleavage of 0.16. G21C G36C A41U gave a self-cleavage of 0.08. In the case of G21A A26G C42G, the self-cleavage is reported as 0.04. In the case of G21A C37A C45A, the self-cleavage is reported as 0.02. For G21U C23A G33U G40C A41U, the self-cleavage was 0.06. Variant G21U G30U G35U U38C has a self-cleavage of 0.41. Work on G21C A24U G29C A39C yielded a self-cleavage of 0.02. In the case of G21U C31A C45G, the self-cleavage is reported as 0.01. With G21U C42A C45G the self-cleavage was 0.07. G21U C42G G44U gave a self-cleavage of 0.02.
